Data published in PubChem BioAssay AID651820 (National Center for Advancing Translational Sciences (NCATS), 2012).
Among all 340,000 compounds or so, about 12,000 (3.5%) were called active. Inconclusive means that the source gave no clear call. Such entries were picked first, then a sample of the others. Calls follow the shape of the dose curve; as a rule, active = well fitted inhibition curve with a large enough effect; inconclusive = small, poorly fitted or top-dose-only effect, or another doubt; inactive = no such curve, though single readings can be large or run the other way. Potencies of inconclusive entries are left out as doubtful fits.
% is scaled to controls: 0 for no effect and ±100 for the full control effect; potency is read from the fitted curve at half-maximal effect; tags tell the direction and shape of the fitted curve.

Experiment: qHTS Assay for Inhibitors of Hepatitis C Virus (HCV)
Settings: Huh7.5.1 HCVcc-Cre (HCVcc is cell-culture hepatitis C virus) infection, luciferase reporter, 44 h; activity change, negative = inhibition: at 41.8 µM (top of the series) unless noted
Method in brief: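 Antiviral activity was scored by luciferase reporter output from cells infected with HCVcc-Cre (~0.5 moi) in presence of compound, 44 h infection period, cells seeded 1,000/well 4 h prior.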
With `Cc1cc(C)cc(CN2CCC(Oc3ccc(C(=O)N4CCCC4)cc3)CC2)c1` the “activity change, negative = inhibition” value was inactive: -17.1%. With `COc1ccc(NC(=O)COc2coc(CN3CCN(c4ccccc4)CC3)cc2=O)cc1` the Potency was inconclusive [inhibitor, partial curve]. For `COc1ccc(Cl)cc1NC(=S)NCc1cccs1`, the Potency was inconclusive [inhibitor, single point]. In the case of `O=C1N/C(=C/c2cccn2-c2ccc(F)cc2)C(=O)N1Cc1ccccc1F`, the Potency is reported as inconclusive [inhibitor, partial curve, poor fit]. For `CC(=O)c1c(C)c2c(n1CCN(C)C)CCCC2`, the Potency was inconclusive [inhibitor, single point]. With `CCCCCCCCCCCCCCCC[n+]1cccc2ccccc21` the Potency was active: 4.47 µM. For `CC(C)N(Cc1nc(-c2ccc(Cl)cc2)no1)C(=O)CN(C)S(=O)(=O)c1ccc(Cl)cc1`, the Potency was inconclusive [inhibitor, single point]. With `CCCn1c2ccc(F)cc2c2nnc(NN)nc21` the Potency was inconclusive [inhibitor, partial curve]. With `Cn1c(=O)oc2cc(S(=O)(=O)Nc3ccc(F)cc3)ccc21` the “activity change, negative = inhibition” value was inactive: 1.84%. For `CC(NC(=O)C1CCCN(C(=O)c2ccc(Cl)cc2)C1)c1cccc(C(F)(F)F)c1` (stereo not drawn), the Potency was inconclusive [inhibitor, single point]. For `CCCOc1ccc(C(=O)NNC(=S)NC(C)=O)cc1`, the Potency was inconclusive [inhibitor, single point]. In the case of `CC(NC(=O)[C@H](C)NC(=O)[C@@H]1CSC2c3ccccc3C(=O)N21)c1ccccc1` (stereo partly drawn), the “activity change, negative = inhibition” value is reported as inactive: 12.3%. In the case of `O=C1CN(C(=O)CSc2nc(-c3ccc(Cl)cc3)cs2)c2ccccc2N1`, the Potency is reported as active: 14.1 µM. In the case of `O=c1[nH]c(=O)n(Cc2ccccc2)c2c1CCC2`, the “activity change, negative = inhibition” value is reported as inactive: 6.49%. With `CN1CCCN(Cc2ccc(Cl)cc2Cl)CC1` the Potency was inconclusive [inhibitor, partial curve]. For `Cc1ccc(S(=O)(=O)c2nnn3c2nc(NC2CCN(Cc4ccccc4)CC2)c2ccccc23)cc1C`, the Potency was inconclusive [inhibitor, partial curve]. For `COCCn1nnnc1C(c1ccc(OC)c(OC)c1)N1CCN(C(=O)c2ccco2)CC1` (stereo not drawn), the “activity change, negative = inhibition” value was inactive: 7.92%. With `Clc1ccc(/C=C\c2nccc3c2[nH]c2ccccc23)cc1` the Potency was inconclusive [inhibitor, single point]. In the case of `Cc1cc(-c2ccc(F)cc2)nc2cc(C(N)=O)nn12`, the Potency is reported as inconclusive [inhibitor, single point]. In the case of `COc1cc(OC)c(OC)cc1CNc1cc(C)ccc1OC`, the Potency is reported as inconclusive [inhibitor, single point]. For `Cc1c([N+](=O)[O-])c([N+](=O)[O-])nn1CC(=O)N1CCOCC1`, the “activity change, negative = inhibition” value was inactive: 24.4%. For `CC(C)N1CCc2c(sc(NC(=O)c3ccc(S(=O)(=O)N4CCCCC4C)cc3)c2C(N)=O)C1` (stereo not drawn), the Potency was inconclusive [inhibitor, single point]. With `CCOc1ccc(OCc2ccc(C(=O)Nc3cccc(C)n3)o2)cc1` the Potency was inconclusive [inhibitor, full curve]. In the case of `CCCCN(C)C(=O)c1sc2ncn(CC)c(=O)c2c1C`, the “activity change, negative = inhibition” value is reported as inactive: -12.8%. For `COCCNC(=S)N/N=C(\C)c1ccc(Cl)c(Cl)c1Cl`, the Potency was inconclusive [inhibitor, single point]. With `Cc1ccc(NC(=O)CSCC(=O)NC2CCCCC2)cc1` the Potency was inconclusive [inhibitor, full curve, poor fit]. In the case of `CCCn1c(/C=C/c2ccccc2)nc2ccccc21`, the Potency is reported as inconclusive [inhibitor, partial curve]. With `O=C(N/N=C/c1ccc(Sc2nc3ccccc3s2)c([N+](=O)[O-])c1)c1ccccn1` the Potency was inconclusive [inhibitor, single point]. With `COC(=O)C1=C(c2cccc(OCc3ccccc3)c2)C[C@@H]2CC[C@H]1N2C(=O)NCc1cc(C)oc1C(F)(F)F` the Potency was inconclusive [inhibitor, partial curve]. In the case of `CCOC(=O)c1c(-c2cccs2)csc1NC(=O)C(C)(C)C`, the Potency is reported as inconclusive [inhibitor, partial curve]. With `Cc1cc(NC(=O)Cn2c(=O)c3c(ncn3CC(C)C)n(Cc3ccccc3)c2=O)no1` the “activity change, negative = inhibition” value was inactive: 8.35%. With `Cc1cc(C(=O)N2CCc3c([nH]c4ccccc34)C2c2cccc(Cl)c2)nn1C` (stereo not drawn) the Potency was inconclusive [inhibitor, single point]. In the case of `CCOc1ccc(N(C)S(=O)(=O)c2ccc(-c3cc(C)no3)s2)cc1`, the Potency is reported as active: 10 µM. In the case of `COc1ccc(NS(=O)(=O)c2ccc3oc(SCc4ccc(F)cc4)nc3c2)cc1`, the Potency is reported as active: 11.2 µM. For `COc1ccc(Cn2c(=O)[nH]c3cc(C(=O)N4CCN(Cc5ccccc5)CC4)ccc3c2=O)cc1`, the Potency was inconclusive [inhibitor, single point]. With `COc1ccccc1CCNC(=O)CCC(=O)N1CC2C[C@@H](C1)Cn1c2cccc1=O` the Potency was inconclusive [inhibitor, full curve, poor fit]. For `CSc1nc(-c2ccccc2)nc2c1COC(C)(C)C2`, the Potency was inconclusive [inhibitor, partial curve]. For `O=C(NCc1ccco1)c1ccc2c(=O)n(Cc3ccco3)c(SCC(=O)N3CCCC3)nc2c1`, the Potency was active: 12.6 µM. For `Cc1noc(NS(=O)(=O)c2ccc(NC(=O)CSc3nc4c(cc3C#N)CCCCC4)cc2)c1C`, the Potency was inconclusive [inhibitor, full curve, poor fit]. In the case of `CC1N(C)c2cc(NC(=O)c3cccs3)c(P(=O)(Nc3ccc([N+](=O)[O-])cc3)N3CCOCC3)cc2C1(C)C` (stereo not drawn), the Potency is reported as inconclusive [inhibitor, single point]. With `CCc1noc(C)c1C(=O)Nc1nc(-c2ccc(NC(C)=O)cc2)cs1` the Potency was active: 10 µM. For `CC(=O)Nc1ccc(C(=O)COC(=O)CCN2C(=O)C3CC=CCC3C2=O)cc1` (stereo not drawn), the “activity change, negative = inhibition” value was inactive: -0.85%. With `COc1ccccc1NC(=O)c1ccc(NS(C)(=O)=O)cc1` the Potency was inconclusive [inhibitor, single point]. With `COc1ccc(OC)c(NC(=O)C2CCCN2C(=O)OCc2ccccc2)c1` (stereo not drawn) the Potency was inconclusive [inhibitor, single point]. In the case of `O=C(CNC(c1ccccc1)c1ccccc1)NCc1ccccc1Cl`, the Potency is reported as inconclusive [inhibitor, single point]. In the case of `O=C(Nc1ccc(Br)cc1)c1cccc(NC(=O)C2C3CC4OC(=O)C2C4C3)c1` (stereo not drawn), the Potency is reported as inconclusive [inhibitor, full curve, poor fit]. With `O=C(CSc1nc(C(F)(F)F)cc(=O)[nH]1)NCC1CCCO1` (stereo not drawn) the Potency was inconclusive [inhibitor, partial curve, poor fit]. For `COc1ccccc1N(CC(=O)NC1CCCC1)C(=O)CNC(=O)c1cccs1`, the “activity change, negative = inhibition” value was inactive: -14.5%. In the case of `COC(=O)/C(C#N)=C/c1c(N2CCCCCC2)nc2c(C)cccn2c1=O`, the Potency is reported as inconclusive [inhibitor, single point]. In the case of `CCOc1ccc(-c2nnc(N(CC)C(=O)C3CCC3)s2)cc1`, the Potency is reported as inconclusive [inhibitor, partial curve, poor fit]. For `CC1CN(S(=O)(=O)c2ccc(F)cc2)C(C)N1C(=O)N1CCOCC1` (stereo not drawn), the “activity change, negative = inhibition” value was inactive: 27.1%. With `CCOC(=O)c1cc(-c2ccccc2)sc1NC(=S)Nc1cc(C)ccn1` the “activity change, negative = inhibition” value was inactive: 12.1%. In the case of `O=C(c1ccc(Br)cc1)c1sc(N2CCOCC2)nc1-c1ccccc1`, the Potency is reported as active: 7.94 µM. For `C[C@]12c3[nH]c4ccccc4c3CCN1C(=O)C(CC(=O)NCc1cccc(C(F)(F)F)c1)C[C@@H]2C(=O)N1CCOCC1` (stereo partly drawn), the Potency was inconclusive [inhibitor, partial curve]. With `Cc1ccccc1NC(=O)COC(=O)c1ccc(S(C)(=O)=O)c([N+](=O)[O-])c1` the Potency was inconclusive [inhibitor, single point]. With `Cc1ccc2nc(-c3ccc(-c4ccccn4)s3)cn2c1` the Potency was inconclusive [inhibitor, single point]. For `CC(=O)c1ccc(N2CCN(C(=O)c3cccc(Oc4ccccc4)c3)CC2)cc1`, the “activity change, negative = inhibition” value was inactive: -28.5%. For `O=C(/C=N\O)NCCCNCc1ccccc1`, the “activity change, negative = inhibition” value was inactive: 24%. For `O=C(NCC1CCCO1)c1ccc(COc2ccc(Br)cc2)cc1` (stereo not drawn), the Potency was inconclusive [inhibitor, single point]. With `O=C(NCc1ccc(F)cc1)C1CCN(S(=O)(=O)c2ccc(Br)s2)CC1` the Potency was inconclusive [inhibitor, partial curve]. With `O=c1[nH]c2cc3c(cc2cc1C(c1nnnn1C1CCCC1)N1CCSCC1)OCCO3` (stereo not drawn) the “activity change, negative = inhibition” value was inactive: 16%. For `CCCCOc1ccc(-c2nnc(-c3ccncc3)o2)cc1`, the Potency was inconclusive [inhibitor, single point]. For `COCCNC(=O)c1cccc(OC2CCN(Cc3ccc(F)c(OC)c3)CC2)c1`, the Potency was inconclusive [inhibitor, single point]. For `OCCC1CN(CC(c2ccccc2)c2ccccc2)CCN1C1CCCC1` (stereo not drawn), the Potency was inconclusive [inhibitor, partial curve]. For `CCOC(=O)c1cc(C(C)(C)C)nc(SC)c1C#N`, the Potency was inconclusive [inhibitor, partial curve, poor fit]. For `CN1/C(=C\C(=O)c2cccnc2)Sc2ccccc21`, the Potency was inconclusive [inhibitor, partial curve, poor fit]. For `C#CCSc1nnnn1-c1cccc(Cl)c1`, the Potency was active: 25.1 µM. For `COc1cccc(CCNC(=O)C2CCCN(c3ncnc4c3nc3n4CCCCC3)C2)c1OC` (stereo not drawn), the Potency was inconclusive [inhibitor, partial curve].
